34 cell lines from the supplement of paper PMC4967469 can be followed below.

Lines with a small IC50 respond at low doses; a limit (>, <) means that the fit lies beyond the doses tested. AUC, from the same fit, is the share of area under the viability curve across the 256-fold dose range; the more sensitive the line, the further below 1. For some of these results: The top dose, if marked as inferred, was calculated from the reported fits. For some of these results: An entry number marks a drug with two screens in the source, which often give different values.

What all share (assay): Viability of human cancer cell lines after 72 h of drug (GDSC screen)
Compound in assay [1]: CC(=O)c1c(C)c2cnc(Nc3ccc(N4CCNCC4)cn3)nc2n(C2CCCC2)c1=O [PD-0332991]
As to the method: (§1)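 Human cancer cell lines in 384-well plates, medium with 10% serum, drug for 72 h over a 256-fold dose range (nine 2-fold or five 4-fold steps up to the top dose). Adherent lines were fixed and stained with the nucleic acid dye Syto60, suspension lines read with resazurin; signal relative to control wells, capped at 0 and 100%. One two-parameter sigmoid per drug and line, fitted in a mixed model over all curves with the slope shared within a line.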

Compound in assay [2]: Cn1cnc2c(F)c(Nc3ccc(Br)cc3Cl)c(C(=O)NOCCO)cc21 [AZD6244]
To be noted: screen: GDSC drug entry 1062. As to the method: as §1

Compound in assay [3]: COc1cc2c(Nc3ccc(NC(=O)c4ccccc4)cc3)ncnc2cc1OCCCN1CCOCC1 [ZM-447439]
To be noted: top dose inferred. As to the method: as §1

As usually defined, the IC50 is the midpoint of a concentration-inhibition curve. For “ALL-PO (lymphoblastic leukaemia, suspension, top dose 4 µM)”, the AUC in assay [1] stood at 0.774; in assay [2], 0.837; in assay [3] it was 0.663. Also, the IC50 in assay [1] worked out at 1.66 µM; in assay [2] it was 2.91 µM; in assay [3] it was 0.733 µM.

In the case of “ALL-SIL (T-cell leukaemia, suspension, top dose 4 µM)”, the AUC in assay [1] amounted to 0.88; in assay [2], 0.988; in assay [3] it was 0.735. Also, the half-maximal inhibitory concentration (IC50) in assay [1] was 3.15 µM; in assay [2], more than 4 µM; in assay [3], 1.04 µM.

“AM-38 (glioma, semi-adherent, top dose 4 µM)”: the AUC in assay [1] is 0.882; in assay [2], 0.978; in assay [3], 0.977. The IC50 in assay [1], in assay [2] and in assay [3] was more than 4 µM throughout.

Turning to “EW-16 (Ewing sarcoma, adherent, top dose 4 µM)”, in assay [1], the AUC turned out to be 0.585 and the IC50 is 0.431 µM. In addition, in assay [3], the AUC was found to be 0.76 and the IC50 came to 1.47 µM.

“G-402 (soft tissue, adherent, top dose 4 µM)”: in assay [1], the AUC stood at 0.753 and the IC50 was found to be 1.75 µM. Also, in assay [3], the AUC amounted to 0.864 and the IC50 is more than 4 µM.

On to “NCI-H2066 (small cell lung carcinoma, adherent, top dose 4 µM)”, for which, in assay [1], the AUC is 0.979 and the IC50 is more than 4 µM. Further, in assay [2], the AUC worked out at 0.98 and the IC50 was more than 4 µM.

For the cell line OAW-42 (ovary, adherent, top dose 4 µM), in assay [1], the AUC amounted to 0.963 and the IC50 is more than 4 µM. For the same cell line, in assay [2], the AUC was 0.983 and the IC50 is more than 4 µM.

Turning to OMC-1 (cervix, adherent, top dose 4 µM), in assay [1], the AUC turned out to be 0.988 and the IC50 was more than 4 µM. In assay [2], the AUC is 0.988 and the IC50 is more than 4 µM.

OV-7 (ovary, adherent, top dose 4 µM): in assay [1], the AUC worked out at 0.954 and the IC50 was more than 4 µM. Moreover, in assay [2], the AUC was found to be 0.927 and the half-maximal inhibitory concentration (IC50) is more than 4 µM.

With OV-17R (ovary, adherent, top dose 4 µM), in assay [1], the AUC is 0.955 and the IC50 is more than 4 µM. For the same cell line, in assay [2], the AUC was 0.966 and the IC50 is more than 4 µM.

For “OVCA433 (ovary, adherent, top dose 4 µM)”, in assay [1], the AUC stood at 0.873 and the IC50 was more than 4 µM. In assay [2], the AUC is 0.961 and the IC50 is more than 4 µM.

With “OVCAR-5 (ovary, adherent, top dose 4 µM)”, in assay [1], the AUC stood at 0.632 and the IC50 came to 0.624 µM. Further, in assay [2], the AUC is 0.979 and the IC50 was more than 4 µM.

With OVISE (ovary, adherent, top dose 4 µM), the AUC in assay [1] was found to be 0.956; in assay [2], 0.897. Further, the IC50 in assay [1] and in assay [2] was more than 4 µM throughout.

On to “PCI-4B (head and neck, adherent, top dose 4 µM)”, for which, in assay [1], the AUC was determined as 0.587 and the IC50 stood at 0.428 µM. Also, in assay [2], the AUC is 0.955 and the IC50 is more than 4 µM.

With “PCI-6A (head and neck, adherent, top dose 4 µM)”, in assay [1], the AUC is 0.912 and the IC50 is more than 4 µM. Further, in assay [2], the AUC came out at 0.954 and the IC50 was more than 4 µM.

For the cell line PL4 (pancreas, adherent, top dose 4 µM), the AUC was 0.983 in assay [1] and 0.987 in assay [2]. The IC50 in assay [1] and in assay [2] was more than 4 µM each time.

Regarding “RCC-ER (kidney, adherent, top dose 4 µM)”, in assay [1], the AUC amounted to 0.949 and the 50% inhibitory concentration (IC50) is more than 4 µM. Further, in assay [2], the AUC came to 0.986 and the half-maximal inhibitory concentration (IC50) was more than 4 µM.

As for “RERF-LC-KJ (lung adenocarcinoma, adherent, top dose 4 µM)”, in assay [1], the AUC is 0.987 and the half-maximal inhibitory concentration (IC50) is more than 4 µM. Moreover, in assay [2], the AUC worked out at 0.987 and the IC50 is more than 4 µM.

For RKN (ovary, adherent, top dose 4 µM), in assay [1], the AUC is 0.78 and the IC50 was 1.74 µM. Moreover, in assay [2], the AUC turned out to be 0.98 and the IC50 is more than 4 µM.

Consider RT4 (bladder, adherent, top dose 4 µM), for which the AUC in assay [1] is 0.968; in assay [3], 0.983. Further, the 50% inhibitory concentration (IC50) in assay [1] and in assay [3] was more than 4 µM in each case.

For the cell line “SBC-3 (small cell lung carcinoma, adherent, top dose 4 µM)”, the figures for the AUC in assay [1] and in assay [2] were 0.899 and 0.989, respectively. In addition, the IC50 in assay [1] and in assay [2] was more than 4 µM each time.

For SF295 (glioma, adherent, top dose 4 µM), in assay [1], the AUC was determined as 0.77 and the IC50 is 1.64 µM. In assay [2], the AUC was determined as 0.953 and the IC50 is more than 4 µM.

SISO (cervix, adherent, top dose 4 µM): in assay [1], the AUC was 0.988 and the IC50 was more than 4 µM. Moreover, in assay [2], the AUC was 0.988 and the IC50 is more than 4 µM.

Regarding “SK-CO-1 (large intestine, adherent, top dose 4 µM)”, in assay [1], the AUC stood at 0.856 and the IC50 amounted to 2.93 µM. In assay [2], the AUC came out at 0.989 and the IC50 is more than 4 µM.

As to “SK-HEP-1 (liver, adherent, top dose 4 µM)”, in assay [1], the AUC came to 0.792 and the IC50 is 1.68 µM. In addition, in assay [3], the AUC amounted to 0.883 and the IC50 turned out to be 3.82 µM.

In the case of “SKN-3 (head and neck, adherent, top dose 4 µM)”, in assay [1], the AUC came to 0.825 and the IC50 amounted to 2.99 µM. For the same cell line, in assay [2], the AUC worked out at 0.972 and the concentration for half-maximal inhibition (IC50) was more than 4 µM.

Turning to “SNU-182 (liver, adherent, top dose 4 µM)”, in assay [1], the AUC turned out to be 0.977 and the half-inhibitory concentration (IC50) was more than 4 µM. For the same cell line, in assay [2], the AUC was 0.986 and the IC50 was more than 4 µM.

Regarding “SNU-423 (liver, adherent, top dose 4 µM)”, the AUC in assay [1] was 0.929; in assay [2], 0.983. For the same cell line, the IC50 in assay [1] and in assay [2] was more than 4 µM throughout.

Consider SW626 (ovary, adherent, top dose 4 µM), for which the AUC in assay [1] is 0.93; in assay [2], 0.982. Also, the IC50 in assay [1] and in assay [2] was more than 4 µM each time.

As for “SW1271 (small cell lung carcinoma, adherent, top dose 4 µM)”, the AUC in assay [1] worked out at 0.958; in assay [2] it was 0.979. Also, the IC50 in assay [1] and in assay [2] was more than 4 µM each time.

In the case of SiHa (cervix, adherent, top dose 4 µM), the AUC in assay [1] turned out to be 0.984; in assay [2] it was 0.987. For the same cell line, the IC50 in assay [1] and in assay [2] was more than 4 µM in each case.

With “TOV-112D (ovary, adherent, top dose 4 µM)”, in assay [1], the AUC turned out to be 0.826 and the IC50 came out at 2.45 µM. In addition, in assay [2], the AUC worked out at 0.973 and the IC50 is more than 4 µM.

Turning to TYK-nu (ovary, adherent, top dose 4 µM), in assay [1], the AUC was 0.656 and the IC50 is 0.699 µM. Further, in assay [2], the AUC was found to be 0.936 and the IC50 was more than 4 µM.

As for “UWB1.289 (ovary, adherent, top dose 4 µM)”, in assay [1], the AUC worked out at 0.975 and the IC50 was more than 4 µM. Moreover, in assay [2], the AUC is 0.965 and the IC50 was more than 4 µM.
